Measurements as given in PubChem BioAssay AID743279 (National Center for Advancing Translational Sciences (NCATS), 2014).
Screen size: about 360,000 compounds; about 17,000 (4.7%) were called active. Inconclusive means that the source gave no clear call. Such entries were picked first, then a sample of the others. Rule as the data show it: active = activity change below about -50%; inconclusive = mostly about -30% to -49%; inactive = weaker than that.

Experiment: qHTS for Inhibitors of Inflammasome Signaling: IL-1-beta AlphaLISA Primary Screen
Conditions: THP-1 LPS/ATP IL-1B secretion, 16 h; at 57.5 µM, hits give low values
Method in brief: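 Secreted IL-1B measured by AlphaLISA bead assay after 16 h compound exposure of THP-1 cells; compounds (final up to 57.5 uM) added 1 h before LPS (250 ng/mL) and ATP (1.25 mM) stimulation; lower signal means less secretion.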
% is scaled to controls: 0 for no effect and ±100 for the full control effect.

Row | Structure (SMILES) | activity change
1 | CCOc1ccc(-c2nnc(-c3ccncc3)o2)cc1 | inactive: -1.46%
2 | CCn1nccc1C(=O)Nc1nc2ccccc2n1CCN1CCCCC1 | inconclusive: -41.9%
3 | CCCCN=C(N)/C(C(=O)OCC)=C(\O)c1ccc(OC)cc1 | inconclusive: -49.8%
4 | O=C(Nc1ccc(Oc2cccnc2)nc1)c1ccc(C(F)(F)F)cc1 | inconclusive: -37.7%
5 | O=C1N[C@@H](c2ccccc2)COC(=O)[C@@H](Cc2ccc(F)cc2)CC/C=C/C[C@H]1CC(=O)N(CCO)Cc1ccccc1 | inconclusive: -38.8%
6 | O=C1/C(=C/c2cccnc2)SC(=S)N1Cc1ccco1 | active: -97%
7 | COc1ccccc1NC1=C(N2CCCCC2)C(=O)c2ccccc2C1=O | inconclusive: -42.1%
8 | Cc1ccc(-c2n[nH]c(=O)c3ccccc23)cc1S(=O)(=O)Nc1ccc(F)cc1 | inactive: 4.48%
9 | c1ccc(-n2nnnc2SCc2cn3ccccc3n2)cc1 | inactive: -25%
10 | Nc1ccc(Oc2ccccc2-c2ccccc2)cc1 | active: -56.8%
11 | O=C(/C=C/c1ccc2c(c1)OCO2)c1cccnc1 | inconclusive: -38.7%
12 | CC1Cc2ccccc2N1C(=O)CSc1nnnn1C(C)C (stereo not drawn) | inconclusive: -33%
13 | COc1ccccc1NC(=O)N1CCc2[nH]c3ccc(F)cc3c2C1 | inconclusive: -36.6%
14 | COc1ccc(Nc2cc(C)c3c(O)cccc3n2)cc1 | inconclusive: -37.6%
15 | COc1ccc2nc(N3CCCC(C(=O)NCCCN4C(C)CCCC4C)C3)sc2c1 (stereo not drawn) | active: -69.8%
16 | Cc1ccc2c(c1)N(C)/C(=C/c1cccc[n+]1C)S2 | active: -88.5%
17 | O=[N+]([O-])c1ccccc1Nc1c2ccccc2nc2ccccc12 | inactive: 7.45%
18 | Cc1ccc(-n2nc(CC#N)c(C#N)c2N)cc1 | inactive: 20.4%
19 | C#CCOCCOCCOCCNc1nc(N2CCN(C(=O)CCCCCCCCCCNC(=O)Cn3cc(CCCCCN)nn3)CC2)nc(N2CCN(C(=O)CCCCCCCCCCNC(=O)[C@@H](CCC(=O)O)n3cc(CCCCCN)nn3)CC2)n1 | inactive: -16.7%
20 | O=[N+]([O-])c1ccc(/C=C2\CCC(C3=CCCC3)=C2N2CCOCC2)cc1 | inconclusive: -32.5%
21 | CCSc1ccccc1C(=O)N1CCN(Cc2ccc3c(c2)OCO3)CC1 | inconclusive: -35.4%
22 | Cn1c(SCc2c(F)cccc2Cl)nc2c(c1=O)SCC2 | active: -58.6%
23 | COc1ccc(CN(C(=O)c2ccco2)c2ccc(Br)cc2)cc1OC | inconclusive: -31.3%
24 | Cn1cccc1Cc1nnc(SCC(=O)Nc2ccccc2F)n1CCc1ccccc1 | inconclusive: -33.5%
25 | O=C(/C=C/Sc1ccccc1)c1ccc(Cl)cc1 | active: -99%
26 | COc1cccc(CN(C)CCCn2cnc(C(=O)Nc3ccc(C)c(C)c3)n2)c1 | inactive: -21.6%
27 | CC(O)(c1cccnc1)c1nc(-c2ccoc2)cs1 (stereo not drawn) | inconclusive: -49.7%

Row | Structure (SMILES) | activity change
28 | COC(=O)N1C(=O)[C@@](c2ccccc2)(C(C)C)N1C(=O)OC | inconclusive: -49.7%
29 | C/C(=N\NC(=O)COc1ccccc1-c1ccccc1)c1cccnc1 | inactive: 19.4%
30 | COc1ccccc1-n1c(N)c(C(=O)NCC2CCCO2)c2nc3ccccc3nc21 (stereo not drawn) | inconclusive: -47.6%
31 | O=C(C1CCN(c2nnc(N3CCCC3=O)s2)CC1)N1CCN(Cc2ccc3c(c2)OCO3)CC1 | inconclusive: -32.6%
32 | COC(=O)/C=C\C(=O)Nc1cccc([N+](=O)[O-])c1 | inconclusive: -46.5%
33 | CCN(CC)CCCNC(=O)CSc1nc2c(c(C(F)(F)F)n1)CCc1ccccc1-2 | inconclusive: -32.8%
34 | CCOC(=O)c1sc(NC(C)=O)nc1C | inconclusive: -36.8%
35 | O=C(Nc1cccc(F)c1)N1CC=C(c2ccc(Cl)cc2)CC1 | inconclusive: -32.1%
36 | O=C(O)c1ccc(CSc2nnc(-c3cccnc3)n2-c2ccc(Br)cc2)cc1 | inconclusive: -37.2%
37 | COc1cccc(C2c3c(C)nn(-c4ccc([N+](=O)[O-])cc4)c3N=C3C(=O)Nc4ccccc4N32)c1 (stereo not drawn) | inactive: 6.77%
38 | C[C@H]1COC(=O)[C@@H](Cc2ccc(F)cc2)C/C=C\C[C@@H](CC(=O)NCCO)C(=O)N1 | inactive: 27%
39 | C[C@H](CO)N1C[C@H](C)[C@@H](CN(C)C(=O)Nc2ccc(C(F)(F)F)cc2)Oc2ccc(NC(=O)Nc3ccc4c(c3)OCO4)cc2C1=O | inconclusive: -30.3%
40 | Cc1ccc(C)c(C(O)c2ncc(-c3cccc(C(F)(F)F)c3)[nH]2)c1 (stereo not drawn) | active: -53.7%
41 | C=CCn1c(C)cc(C(=O)COC(=O)c2ccc3c(c2)NC(=O)CS3)c1C | inconclusive: -47%
42 | CC[C@]12c3[nH]c4cc(-c5ccco5)ccc4c3CCN1C(=O)[C@@H](CC(=O)NCC13CC4CC(CC(C4)C1)C3)C[C@@H]2C(=O)N1CCN(C(=O)C2CC2)CC1 | inconclusive: -48.1%
43 | Cc1ccc(CS(=O)Cc2ccc(C(=O)NCc3ccc4c(c3)OCO4)o2)cc1 (stereo not drawn) | inactive: -16.1%
44 | CCOc1ccc(CN2CCN(Cc3ccc4cc(F)ccc4n3)CC2CCO)cc1 (stereo not drawn) | inconclusive: -34.1%
45 | COc1cccc(CN=c2c([N+](=O)[O-])nn(-c3ccccc3C)n2O)c1 | inactive: 8.79%
46 | COc1ccc(CCNC2CCC(c3ccccc3)CC2)cc1 (stereo not drawn) | inconclusive: -30.1%
47 | O=C(Nc1cc([N+](=O)[O-])ccc1N1CCCC1)c1cccs1 | inconclusive: -37.1%
48 | CC(C)N1C/C(=C/c2cccnc2)C(=O)/C(=C/c2cccnc2)C1 | active: -104%
49 | O=[N+]([O-])c1ccccc1S(=O)(=O)Oc1ccc(C(=S)N2CCOCC2)cc1 | inconclusive: -37.6%
50 | COc1ccc(-c2nc(C)c(C(C)=O)n2O)cc1 | inconclusive: -30.8%
51 | CCc1cc(C(=O)c2ccc(Br)cc2)c(NC(=O)CN(CC)CC)s1 | inactive: -7.42%
52 | COc1ccc(-c2ccc(CN3C(C(C)C)C(=O)N(Cc4cn(CC5CCCCC5)nn4)CCS3(=O)=O)cc2)cc1OC (stereo not drawn) | inconclusive: -34.7%
53 | NC(=S)Cc1nc(-c2ccc(Cl)cc2)cs1 | inconclusive: -36.9%
